Experimental data from PubChem BioAssay AID1476 (National Center for Advancing Translational Sciences (NCATS), 2009).
Where “and” joins values, the source holds several entries; their conditions need not be identical. Equal values may be shown once. About 4,500 (2.2%) of roughly 200,000 compounds were called active. The inconclusive results got no clear call from the source; some entries with a clear call stand among them for comparison. The call rests on the fitted dose curve; in most records, active means well fitted inhibition curve with a large enough effect; inconclusive means small, poorly fitted or top-dose-only effect, or effect the other way; inactive means flat fitted curve, though single readings scatter. A potency beside an inconclusive call is a rough fit, not a confirmed value.

Target: Cruzipain (Trypanosoma cruzi) (UniProt P25779)
Experiment: qHTS Assay for Promiscuous and Specific Inhibitors of Cruzain (without detergent); further: nearly all actives have a fitted effect of over 40% in size;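 on max response, negative = inhibition: plate controls were enzyme without inhibitor for no effect and buffer without enzyme for full effect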
Conditions: purified cruzain, Z-FR-AMC fluorescence, no detergent
Outline: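 Detergent-free condition (0.00005% Triton X-100) in acetate buffer pH 5.5 with DTT. 1.5 nM enzyme and compound were pre-mixed 15 min, then 2 uM Z-FR-AMC substrate added; reaction progress from fluorescence change between first and third reads (60 s).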
Potency means the concentration at half of the fitted maximal effect; tags describe the fitted curve by direction and shape.

Sequence of UniProt P25779 (P25779 whole entry, looked up): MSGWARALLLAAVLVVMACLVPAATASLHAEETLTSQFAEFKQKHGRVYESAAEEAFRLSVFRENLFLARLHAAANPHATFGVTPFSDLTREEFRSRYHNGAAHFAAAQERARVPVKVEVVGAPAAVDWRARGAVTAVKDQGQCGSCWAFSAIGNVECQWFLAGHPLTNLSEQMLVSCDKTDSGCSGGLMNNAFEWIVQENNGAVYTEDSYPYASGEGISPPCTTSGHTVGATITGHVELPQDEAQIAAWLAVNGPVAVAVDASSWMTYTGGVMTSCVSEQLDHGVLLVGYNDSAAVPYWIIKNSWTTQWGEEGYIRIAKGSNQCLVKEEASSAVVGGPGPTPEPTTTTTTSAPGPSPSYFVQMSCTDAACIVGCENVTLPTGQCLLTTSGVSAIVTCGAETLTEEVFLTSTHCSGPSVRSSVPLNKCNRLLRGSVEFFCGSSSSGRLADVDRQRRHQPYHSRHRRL

Compound	Potency	max response, negative = inhibition
Cc1cc(N/N=C/c2c(O)ccc3ccccc23)nc(-c2ccccc2O)n1	active: 15.8 µM	–
O=C1OCCN1C(=O)[C@H]1[C@H](c2ccc(Cl)cc2)C(c2cccc(Cl)c2)=NN1c1ccccc1	active: 20 µM and active: 17.8 µM	–
Cc1ccc(CNC(=O)c2ccc3c(c2)nc(C)n3-c2cccc(F)c2)cc1	–	inactive: 16.9%
COc1ccc(C(=O)N2CCC[C@@]3(CCN(c4ccccc4)C3)C2)cc1	–	inactive: 7.96%
COc1ccc(N2C(=O)/C(=C/c3cccnc3)NC2=S)cc1	inconclusive: 39.8 µM [inhibitor, single point]	–
FC(F)(F)c1ccc(N=Cc2sc(N3CCOCC3)nc2-c2ccccc2)cc1	inconclusive: 31.6 µM [activator, single point]	–
C/C=C\C(=O)N(CC)c1ccccc1C	inconclusive: 7.94 µM [activator, single point]	–
Cc1ccc(C)c(NC(=S)c2nc3ccccc3s2)c1	inconclusive: 25.1 µM [inhibitor, single point]	–
Cc1cccc(-n2ncc(C(=O)N3CCN(C4CCCCC4)CC3)c2C2CCN(C(=O)OC(C)(C)C)CC2)c1	–	inactive: -14.8%
CCOC(=O)CC(NC(=O)CCc1c(C)nc2c(c(C)nn2-c2ccc(C)c(C)c2)c1C)c1ccc(C)cc1 (stereo not given)	–	inactive: -12.1%
CCOc1nc(Nc2cc(Cl)ccc2OC)nc(OCC)n1	inconclusive: 39.8 µM [inhibitor, single point]	–
CCOC(=O)C1CCCN(C(=O)c2cc3nc(-c4ccc5c(c4)OCO5)cc(C(F)(F)F)n3n2)C1 (stereo not given)	inconclusive: 25.1 µM [activator, single point]	–
Cc1nnc(SCC(=O)N2CCc3ccccc3C2)n1-c1ccccc1	inconclusive: 3.98 µM [activator, single point]	–
O=C(C1CCN(S(=O)(=O)c2cccc3cccnc23)CC1)N1CCN(c2ccccc2)CC1	inconclusive: 39.8 µM [activator, single point]	–
O=C(Nc1ccc(-c2noc(COc3ccccc3Cl)n2)cc1)c1ccco1	inconclusive: 25.1 µM [inhibitor, single point]	–
Cc1nc2cc(-c3ccc(Cl)cc3)nn2c(C)c1CCC(=O)NC(C)c1ccc2c(c1)OCCO2 (stereo not given)	inconclusive: 31.6 µM [activator, single point]	–
CCCCCN1C(C(=O)c2ccccc2)=C(NC(=O)c2ccc(OC)cc2)c2ccccc2S1(=O)=O	inconclusive: 3.16 µM [inhibitor, single point]	–
O=C(Nc1ccc(C(=O)N2CCN(c3cccc(Cl)c3)CC2)cc1)c1nsc2ccccc12	active: 10 µM	–
COc1ccc(NC(=O)c2ccc(-c3nc(CSc4ccc(C)cc4)c(C)o3)cc2)cc1Cl	inconclusive: 39.8 µM [inhibitor, single point]	–
Cc1ccc(NC(=O)c2cc(S(=O)(=O)N(C)C3CCCCC3)ccc2F)cc1C	–	inactive: -28.9%
c1ccc(-c2ccc(-c3nc(-c4ccncc4)no3)cc2)cc1	inconclusive: 39.8 µM [inhibitor, single point]	–
COc1ccc(CNc2nc(SCc3ccc(Cl)cc3)nc3ccccc23)cc1	–	inactive: 2.74%

Compound	Potency	max response, negative = inhibition
COc1ccc(-c2[nH]c(-c3cccc(OC)c3)nc2SCC(=O)Nc2ccc3c(c2)OCO3)cc1	inconclusive: 39.8 µM [inhibitor, single point]	–
CN(C)C(=O)c1ccc(-n2nc(C(F)(F)F)c3c2CCCC3)cc1	inconclusive: 31.6 µM [activator, single point]	–
Cc1ccc(NC(=O)CSc2nnnn2-c2ccc3c(c2)OCO3)cc1C	active: 25.1 µM	–
CCOC(=O)C1=NN(c2ccccc2C)C2=NC(C)=C(C(=O)OC)C(c3cccc(OC)c3)N12 (stereo not given)	inconclusive: 31.6 µM [activator, single point]	–
CC(c1ccccc1)N1CCn2c(nc3cc(NC(=O)NC4CCCCC4)ccc32)C1 (stereo not given)	inconclusive: 31.6 µM [inhibitor, single point]	–
CC1CN(c2ccc(Cl)cc2)c2nc3c(c(=O)n(CC(=O)O)c(=O)n3C)n2C1 (stereo not given)	–	inactive: 3.51%
Cc1ccc(CNC(=O)c2sc3nc[nH]c(=O)c3c2C)cc1	–	inactive: 17.4%
Cc1cc2nnc(SCc3ccc(F)cc3)n2c2ccccc12	inconclusive: 39.8 µM [activator, single point]	–
CN(C)c1ccc(/C=N\NC(=O)c2cnc3ccccc3c2)cc1	–	inactive: -2.06%
Cc1ccc(-c2nnn(CC(=O)N(c3cccc(F)c3)C(C(=O)NC3CCCC3)c3ccco3)n2)o1 (stereo not given)	active: 6.31 µM	–
Cc1ccc(S(=O)(=O)c2c(COC(=O)c3cccc(Cl)c3)c(-c3ccccc3)nn2C)cc1	active: 25.1 µM	–
COC(=O)[C@@]1(Cc2ccc(OC)cc2)[C@H]2c3cc(C(=O)N(C)C)n(Cc4cc(F)c(F)c(F)c4)c3C[C@H]2CN1C(=O)c1ccccc1	inconclusive: 20 µM [activator, partial curve]	–
CCOc1ccc(C(=O)/C=C/c2cn(CC(O)CN3CCCCCC3)c3ccccc23)cc1 (stereo not given)	inconclusive: 20 µM [inhibitor, single point]	–
CN(c1ccccc1C(=O)N1CCN(c2cccc(Cl)c2)CC1)S(C)(=O)=O	inconclusive: 25.1 µM [activator, partial curve]	–
Cn1ncnc2c(=O)n(C)c(=O)nc1-2	active: 1.26 µM	–
CCOC(=O)CN(C(=O)CSc1nnc2c(n1)[nH]c1c(C)cc(C)cc12)c1ccccc1	inconclusive: 31.6 µM [activator, single point]	–
CCc1cc2c(=O)c(-c3nc(C)cs3)coc2cc1OC(C)C(=O)NCCO (stereo not given)	inconclusive: 39.8 µM [activator, single point]	–
Cc1cc(C)c(S(=O)(=O)Nc2ccc(-c3ccc(N4CCC(C)CC4)nn3)cc2)cc1C	–	inactive: -27%
N#CCCN/N=C(/Cc1nc2ccccc2[nH]1)c1ccc(Cl)cc1	active: 25.1 µM	–
O=C(Nn1c(O)c(C=C2N=c3ccccc3=N2)sc1=S)c1ccc(Cl)cc1	inconclusive: 31.6 µM [inhibitor, single point]	–
O=C(CSc1nnc2c3ccccc3c3ccccc3c2n1)Nc1ccccc1F	active: 7.94 µM	–
N#C/C(=C\c1cc([N+](=O)[O-])c(N2CCCCC2)cc1N1CCCCC1)c1nn(-c2ccccc2)c(N)c1C#N	active: 7.94 µM	–

Compound	Potency	max response, negative = inhibition
Cn1c(=O)oc2cc(S(=O)(=O)NCCN3CCN(c4ccccc4F)CC3)ccc21	–	inactive: -2.85%
O=C(Oc1ccccc1C(=S)N1CCCCC1)c1cc([N+](=O)[O-])cc([N+](=O)[O-])c1	inconclusive: 25.1 µM [inhibitor, single point]	–
COCCCNC(=O)CSc1c2c(nc3ccc(Cl)cc13)CCCC2	inconclusive: 25.1 µM [inhibitor, single point]	–
CC(=O)C1=C(C)NC(SCC(=O)c2cc(Cl)ccc2Cl)=C(C#N)C1c1ccco1 (stereo not given)	active: 25.1 µM	–
COc1ccc(NC(=O)C2CC(=O)N(C(C)C)C2)cc1 (stereo not given)	inconclusive: 0.316 µM [inhibitor, partial curve]	–
O=C(O)CCC(=O)Nc1sc2c(c1C(=O)Nc1cccc3ccccc13)CCCCC2	inconclusive: 31.6 µM [activator, partial curve]	–
CCN(c1ccccc1)c1nnc(NC(=O)Nc2cccc(Br)c2)s1	inconclusive: 39.8 µM [activator, single point]	–
Cc1cc(C)cc(-n2ccn(CC(=O)Nc3ccccc3C(F)(F)F)c(=O)c2=O)c1	–	inactive: -7.26%
Cc1nc(N2CCCC2)c2c(C(=O)N3CCN(c4cccc(Cl)c4)CC3)c(C)oc2n1	inconclusive: 39.8 µM [activator, single point]	–
C=Cc1ccc(CSc2nc(-c3ccccc3Cl)nc3c2Cc2c(CO)cnc(C)c2O3)cc1	–	inactive: 9.88%
Cc1[nH]n(-c2ccc([N+](=O)[O-])cc2)c(=O)c1C=NCCN1CCN(C(=O)c2cccc(F)c2)CC1	inconclusive: 31.6 µM [activator, single point]	–
Cc1cccc(N2C(=O)CSC23C(=O)N(Cc2cccc(C(F)(F)F)c2)c2ccccc23)c1 (stereo not given)	–	inactive: -19.6%
O=S(=O)(Nc1nc2ccccc2nc1Nc1ccc2c(c1)OCO2)c1ccccc1	inconclusive: 39.8 µM [inhibitor, single point]	–
Cc1cccc(N2CCN(C(=O)CN(C)S(=O)(=O)c3ccc4c(c3)CCC(=O)N4)CC2)c1C	inconclusive: 25.1 µM [activator, partial curve]	–
Cc1cccc(C)c1NC(=S)N=Nc1c(O)n(C)c2ccc(S(=O)(=O)N3CCOCC3)cc12	inconclusive: 20 µM [activator, single point]	–
Cc1ccc2cc3c(NC(=O)CC(C)C)nn(C)c3nc2c1	inconclusive: 39.8 µM [activator, single point]	–
CCCOC(=O)c1ccc(NC(=O)Cc2csc(C)n2)cc1	–	inactive: 0.365%
CCOc1cc(N2CCOCC2)c(OCC)cc1NC(=O)COC(=O)c1cc2ccccc2cc1O	inconclusive: 31.6 µM [activator, single point]	–
COCC(=O)N1c2nc(C(C)C)nn2C2(CCCCC2)[C@@H]2CCCC[C@@H]21	–	inactive: -1.46%
CCOc1cc(/C=C2\SC(=N)N(c3nccs3)C2=O)ccc1OCCN1CCOCC1	inconclusive: 25.1 µM [activator, single point]	–
O=C(Nc1ccccc1C(=O)Nc1ccccc1C(=O)NCc1ccco1)c1ccco1	inconclusive: 31.6 µM [inhibitor, single point]	–
